Results as given in article PMC9911399, “Two distinct binding modes provide the RNA-binding protein RbFox with extraordinary sequence specificity”.
Changes are numbered by the printed parent chain; changes in the protein carry UniProt numbers. This is one part of the list.

T1: RBFOX1 RRM RbFoxmut (Fox-RRM*) (Homo sapiens, UniProt Q9NWB1 109-208, R118D;E147R;N151S;E152T)
T1 sequence: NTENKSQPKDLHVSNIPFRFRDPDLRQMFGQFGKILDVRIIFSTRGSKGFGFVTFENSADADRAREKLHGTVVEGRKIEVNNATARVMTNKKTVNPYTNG

B1: AUUCAUC (DNA:RNA)
RNA: GGGAGACCGGAAUUCAGAUUGUCCAUUCAUCUUAAAUCCCGUCGUAGCCACCA
DNA 1: CAATCTGAATTCCGGTCTCCC
DNA 2: TGGTGGCTACGACGGGATT
B2: GAUGAGU (DNA:RNA)
RNA: B1 RNA with A25G, U26A, C28G, U30G, C31U
DNA 1: CAATCTGAATTCCGGTCTCCC
DNA 2: TGGTGGCTACGACGGGATT
B3: AUGUUCU (DNA:RNA)
RNA: B1 RNA with U27G, C28U, A29U, U30C, C31U
DNA 1: CAATCTGAATTCCGGTCTCCC
DNA 2: TGGTGGCTACGACGGGATT
B4: AAUCCAU (DNA:RNA)
RNA: B1 RNA with U26A, A29C, U30A, C31U
DNA 1: CAATCTGAATTCCGGTCTCCC
DNA 2: TGGTGGCTACGACGGGATT
B5: GGUUAUG (DNA:RNA)
RNA: B1 RNA with A25G, U26G, C28U, C31G
DNA 1: CAATCTGAATTCCGGTCTCCC
DNA 2: TGGTGGCTACGACGGGATT
B6: AGCGACC (DNA:RNA)
RNA: B1 RNA with U26G, U27C, C28G, U30C
DNA 1: CAATCTGAATTCCGGTCTCCC
DNA 2: TGGTGGCTACGACGGGATT
B7: AGUGAUC (DNA:RNA)
RNA: B1 RNA with U26G, C28G
DNA 1: CAATCTGAATTCCGGTCTCCC
DNA 2: TGGTGGCTACGACGGGATT
B8: AAGGUAC (DNA:RNA)
RNA: B1 RNA with U26A, U27G, C28G, A29U, U30A
DNA 1: CAATCTGAATTCCGGTCTCCC
DNA 2: TGGTGGCTACGACGGGATT
B9: UCUACUC (DNA:RNA)
RNA: B1 RNA with A25U, U26C, C28A, A29C
DNA 1: CAATCTGAATTCCGGTCTCCC
DNA 2: TGGTGGCTACGACGGGATT
B10: UCGGCUU (DNA:RNA)
RNA: B1 RNA with A25U, U26C, U27G, C28G, A29C, C31U
DNA 1: CAATCTGAATTCCGGTCTCCC
DNA 2: TGGTGGCTACGACGGGATT
B11: AUGUCCC (DNA:RNA)
RNA: B1 RNA with U27G, C28U, A29C, U30C
DNA 1: CAATCTGAATTCCGGTCTCCC
DNA 2: TGGTGGCTACGACGGGATT
B12: GAGACGU (DNA:RNA)
RNA: GGGAGACCGGAAUUCAGAUUGUCCGAGACGUUUAAAUCCCGUCGUAGCCACCA
DNA 1: CAATCTGAATTCCGGTCTCCC
DNA 2: TGGTGGCTACGACGGGATT
B13: CUCACAC (DNA:RNA)
RNA: B1 RNA with A25C, U27C, C28A, A29C, U30A
DNA 1: CAATCTGAATTCCGGTCTCCC
DNA 2: TGGTGGCTACGACGGGATT
B14: AUAUCAA (DNA:RNA)
RNA: B1 RNA with U27A, C28U, A29C, U30A, C31A
DNA 1: CAATCTGAATTCCGGTCTCCC
DNA 2: TGGTGGCTACGACGGGATT
B15: UUUACUG (DNA:RNA)
RNA: B1 RNA with A25U, C28A, A29C, C31G
DNA 1: CAATCTGAATTCCGGTCTCCC
DNA 2: TGGTGGCTACGACGGGATT
B16: UUGACUG (DNA:RNA)
RNA: B12 RNA with G25U, A26U, G30U, U31G
DNA 1: CAATCTGAATTCCGGTCTCCC
DNA 2: TGGTGGCTACGACGGGATT
B17: GUUCAAU (DNA:RNA)
RNA: B1 RNA with A25G, U30A, C31U
DNA 1: CAATCTGAATTCCGGTCTCCC
DNA 2: TGGTGGCTACGACGGGATT
B18: AGCUUGU (DNA:RNA)
RNA: B12 RNA with G25A, A26G, G27C, A28U, C29U
DNA 1: CAATCTGAATTCCGGTCTCCC
DNA 2: TGGTGGCTACGACGGGATT
B19: CAGUGUC (DNA:RNA)
RNA: B1 RNA with A25C, U26A, U27G, C28U, A29G
DNA 1: CAATCTGAATTCCGGTCTCCC
DNA 2: TGGTGGCTACGACGGGATT
B20: UCUUCUU (DNA:RNA)
RNA: B1 RNA with A25U, U26C, C28U, A29C, C31U
DNA 1: CAATCTGAATTCCGGTCTCCC
DNA 2: TGGTGGCTACGACGGGATT
B21: ACGCAAU (DNA:RNA)
RNA: B1 RNA with U26C, U27G, U30A, C31U
DNA 1: CAATCTGAATTCCGGTCTCCC
DNA 2: TGGTGGCTACGACGGGATT
B22: GCUAGUC (DNA:RNA)
RNA: B1 RNA with A25G, U26C, C28A, A29G
DNA 1: CAATCTGAATTCCGGTCTCCC
DNA 2: TGGTGGCTACGACGGGATT
B23: GUUUACC (DNA:RNA)
RNA: B1 RNA with A25G, C28U, U30C
DNA 1: CAATCTGAATTCCGGTCTCCC
DNA 2: TGGTGGCTACGACGGGATT
B24: GGAACCA (DNA:RNA)
RNA: B12 RNA with A26G, G27A, G30C, U31A
DNA 1: CAATCTGAATTCCGGTCTCCC
DNA 2: TGGTGGCTACGACGGGATT
B25: UCGCGGG (DNA:RNA)
RNA: B12 RNA with G25U, A26C, A28C, C29G, U31G
DNA 1: CAATCTGAATTCCGGTCTCCC
DNA 2: TGGTGGCTACGACGGGATT
B26: CAUCGCG (DNA:RNA)
RNA: B1 RNA with A25C, U26A, A29G, U30C, C31G
DNA 1: CAATCTGAATTCCGGTCTCCC
DNA 2: TGGTGGCTACGACGGGATT
B27: AAGACUC (DNA:RNA)
RNA: B12 RNA with G25A, G30U, U31C
DNA 1: CAATCTGAATTCCGGTCTCCC
DNA 2: TGGTGGCTACGACGGGATT
B28: GCAGCCA (DNA:RNA)
RNA: B12 RNA with A26C, G27A, A28G, G30C, U31A
DNA 1: CAATCTGAATTCCGGTCTCCC
DNA 2: TGGTGGCTACGACGGGATT
B29: GUGACAU (DNA:RNA)
RNA: B12 RNA with A26U, G30A
DNA 1: CAATCTGAATTCCGGTCTCCC
DNA 2: TGGTGGCTACGACGGGATT
B30: UAUCGGA (DNA:RNA)
RNA: B1 RNA with A25U, U26A, A29G, U30G, C31A
DNA 1: CAATCTGAATTCCGGTCTCCC
DNA 2: TGGTGGCTACGACGGGATT
B31: CCAUCCA (DNA:RNA)
RNA: B12 RNA with G25C, A26C, G27A, A28U, G30C, U31A
DNA 1: CAATCTGAATTCCGGTCTCCC
DNA 2: TGGTGGCTACGACGGGATT

Target: T1, RBFOX1 RRM RbFoxmut (Fox-RRM*)
Assay: EMSA; HiTS-Eq, 1 nM pool, 10 min; buffer printed only for the single-RNA assays: 10 mM Tris pH 7.5, 150 mM NaCl, 3.4 mM EDTA, 0.001% NP-40, 30 C
Conditions: tags: His6 N-terminal (pET28a); label: 5' 32P
Summary of the method: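 Purified RbFox RRM, wild type or mutant, was incubated for 10 min in 50 µL with 1 nM of a 5′-radiolabelled RNA pool carrying 7 randomized nucleotides, whose flanks were annealed to DNA oligonucleotides, over a series of increasing protein concentrations. Unbound RNA was resolved on 8% native PAGE, cut out, reverse-transcribed, barcoded by PCR and sequenced on an Illumina HiSeq 2500. Relative association constants were derived from changes in read counts for each RNA species versus the control reaction and normalised to the cognate motif.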

Binder | binding signal
B1 | 0.103 KA relative to UGCAUGU
B2 | 0.114 KA relative to UGCAUGU
B3 | 0.127 KA relative to UGCAUGU
B4 | 0.074 KA relative to UGCAUGU
B5 | 0.585 KA relative to UGCAUGU
B6 | 0.0631 KA relative to UGCAUGU
B7 | 0.115 KA relative to UGCAUGU
B8 | 0.105 KA relative to UGCAUGU
B9 | 0.0705 KA relative to UGCAUGU
B10 | 0.0855 KA relative to UGCAUGU
B11 | 0.0715 KA relative to UGCAUGU
B12 | 0.0818 KA relative to UGCAUGU
B13 | 0.139 KA relative to UGCAUGU
B14 | 0.0951 KA relative to UGCAUGU
B15 | 0.0792 KA relative to UGCAUGU
B16 | 0.243 KA relative to UGCAUGU

Binder | binding signal
B17 | 0.0734 KA relative to UGCAUGU
B18 | 0.238 KA relative to UGCAUGU
B19 | 0.216 KA relative to UGCAUGU
B20 | 0.0701 KA relative to UGCAUGU
B21 | 0.0551 KA relative to UGCAUGU
B22 | 0.073 KA relative to UGCAUGU
B23 | 0.071 KA relative to UGCAUGU
B24 | 0.163 KA relative to UGCAUGU
B25 | 0.082 KA relative to UGCAUGU
B26 | 0.111 KA relative to UGCAUGU
B27 | 0.059 KA relative to UGCAUGU
B28 | 0.073 KA relative to UGCAUGU
B29 | 0.08 KA relative to UGCAUGU
B30 | 0.0559 KA relative to UGCAUGU
B31 | 0.0884 KA relative to UGCAUGU
